# Experimental data: the supplement of paper PMC8728848
# This is one part of the list.
# B1: Banana lectin (Musa acuminata) (protein)
# chain: MNGAIKVGAWGGNGGSAFDMGPAYRIISVKIFSGDVVDAVDVTFTYYGKTETRHFGGSGGTPHEIVLQEGEYLVGMKGEFGNYHGVVVVGKLGFSTNKKSYGPFGNTGGTPFSLPIAAGKISGFFGRGGDFIDAIGVYLEP
# Tests used:
# Test in all cases: glycan array binding signal (z-score within array); higher = stronger binding
# Details in all cases: glycan notation: IUPAC condensed, linker removed
# [1] = target: Fuc(a1-2)Gal6S(b1-3)GlcNAc
# Outline: (§1)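 Arrays were curated from the Consortium for Functional Glycomics database, 3228 in total, and kept only where the protein sequence was available. Binding is expressed as a within-array Z-score. This score was averaged across arrays of the same protein sequence at different concentrations or buffers and across linkers, and negative values can be read as non-binding.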
# [2] = target: Fuc(a1-2)Gal6S(b1-3)GlcNAc6S
# Outline: as §1
# Fuc(a1-2)Gal6S(b1-4)Glc = target: Fuc(a1-2)Gal6S(b1-4)Glc
# Outline: as §1
# [3] = target: Fuc(a1-2)Gal6S(b1-4)Glc6S
# Outline: as §1
# Fuc(a1-2)[Gal(a1-3)]Gal = target: Fuc(a1-2)[Gal(a1-3)]Gal
# Outline: as §1
# [4] = target: Fuc(a1-2)[Gal(a1-3)]Gal(b1-3)GalNAc
# Outline: as §1
# [5] = target: Fuc(a1-2)[Gal(a1-3)]Gal(b1-3)GalNAc(b1-3)Gal(a1-4)Gal(b1-4)Glc
# Outline: as §1
# [6] = target: Fuc(a1-2)[Gal(a1-3)]Gal(b1-3)GlcNAc
# Outline: as §1
# [7] = target: Fuc(a1-2)[Gal(a1-3)]Gal(b1-3)GlcNAc(b1-2)Man(a1-3)[Fuc(a1-2)[Gal(a1-3)]Gal(b1-3)GlcNAc(b1-2)Man(a1-6)]Man(b1-4)GlcNAc(b1-4)GlcNAc
# Outline: as §1
# [8] = target: Fuc(a1-2)[Gal(a1-3)]Gal(b1-3)GlcNAc(b1-2)Man(a1-3)[Fuc(a1-2)[Gal(a1-3)]Gal(b1-3)GlcNAc(b1-2)Man(a1-6)]Man(b1-4)GlcNAc(b1-4)[Fuc(a1-6)]GlcNAc
# Outline: as §1
# [9] = target: Fuc(a1-2)[Gal(a1-3)]Gal(b1-3)GlcNAc(b1-3)GalNAc
# Outline: as §1
# [10] = target: Fuc(a1-2)[Gal(a1-3)]Gal(b1-3)GlcNAc(b1-6)GalNAc
# Outline: as §1
# [11] = target: Fuc(a1-2)[Gal(a1-3)]Gal(b1-4)Glc
# Outline: as §1
# [12] = target: Fuc(a1-2)[Gal(a1-3)]Gal(b1-4)GlcNAc
# Outline: as §1
# [13] = target: Fuc(a1-2)[Gal(a1-3)]Gal(b1-4)GlcNAc(b1-2)Man
# Outline: as §1
# [14] = target: Fuc(a1-2)[Gal(a1-3)]Gal(b1-4)GlcNAc(b1-2)Man(a1-3)[Fuc(a1-2)[Gal(a1-3)]Gal(b1-4)GlcNAc(b1-2)Man(a1-6)]Man(b1-4)GlcNAc(b1-4)GlcNAc
# Outline: as §1
# [15] = target: Fuc(a1-2)[Gal(a1-3)]Gal(b1-4)GlcNAc(b1-2)Man(a1-3)[Fuc(a1-2)[Gal(a1-3)]Gal(b1-4)GlcNAc(b1-2)Man(a1-6)]Man(b1-4)GlcNAc(b1-4)[Fuc(a1-6)]GlcNAc
# Outline: as §1
# [16] = target: Fuc(a1-2)[Gal(a1-3)]Gal(b1-4)GlcNAc(b1-3)GalNAc
# Outline: as §1
# [17] = target: Fuc(a1-2)[Gal(a1-3)]Gal(b1-4)GlcNAc(b1-3)[Fuc(a1-2)[Gal(a1-3)]Gal(b1-4)GlcNAc(b1-6)]GalNAc
# Outline: as §1
# [18] = target: Fuc(a1-2)[Gal(a1-3)]Gal(b1-4)GlcNAc(b1-6)GalNAc
# Outline: as §1
# [19] = target: Fuc(a1-2)[Gal(a1-3)]Gal(b1-4)[Fuc(a1-3)]Glc
# Outline: as §1
# [20] = target: Fuc(a1-2)[Gal(a1-3)]Gal(b1-4)[Fuc(a1-3)]GlcNAc
# Outline: as §1
# [21] = target: Fuc(a1-2)[Gal(a1-3)]Gal(b1-4)[Fuc(a1-3)]GlcNAc(b1-3)GalNAc
# Outline: as §1
# [22] = target: Fuc(a1-2)[Gal(a1-4)]Gal(b1-4)GlcNAc
# Outline: as §1
# [23] = target: Fuc(a1-2)[GalNAc(a1-3)]Gal
# Outline: as §1
# [24] = target: Fuc(a1-2)[GalNAc(a1-3)]Gal(b1-3)GalNAc(a1-3)[Fuc(a1-2)]Gal(b1-4)GlcNAc
# Outline: as §1
# [25] = target: Fuc(a1-2)[GalNAc(a1-3)]Gal(b1-3)GalNAc(b1-3)Gal(a1-4)Gal(b1-4)Glc
# Outline: as §1
# [26] = target: Fuc(a1-2)[GalNAc(a1-3)]Gal(b1-3)GlcNAc
# Outline: as §1
# [27] = target: Fuc(a1-2)[GalNAc(a1-3)]Gal(b1-3)GlcNAc(b1-2)Man(a1-3)[Fuc(a1-2)[GalNAc(a1-3)]Gal(b1-3)GlcNAc(b1-2)Man(a1-6)]Man(b1-4)GlcNAc(b1-4)GlcNAc
# Outline: as §1
# [28] = target: Fuc(a1-2)[GalNAc(a1-3)]Gal(b1-3)GlcNAc(b1-2)Man(a1-3)[Fuc(a1-2)[GalNAc(a1-3)]Gal(b1-3)GlcNAc(b1-2)Man(a1-6)]Man(b1-4)GlcNAc(b1-4)[Fuc(a1-6)]GlcNAc
# Outline: as §1
# [29] = target: Fuc(a1-2)[GalNAc(a1-3)]Gal(b1-3)GlcNAc(b1-3)GalNAc
# Outline: as §1
# [30] = target: Fuc(a1-2)[GalNAc(a1-3)]Gal(b1-3)GlcNAc(b1-6)GalNAc
# Outline: as §1
# [31] = target: Fuc(a1-2)[GalNAc(a1-3)]Gal(b1-4)Glc
# Outline: as §1
# [32] = target: Fuc(a1-2)[GalNAc(a1-3)]Gal(b1-4)GlcNAc
# Outline: as §1
# [33] = target: Fuc(a1-2)[GalNAc(a1-3)]Gal(b1-4)GlcNAc(b1-2)Man
# Outline: as §1
# [34] = target: Fuc(a1-2)[GalNAc(a1-3)]Gal(b1-4)GlcNAc(b1-2)Man(a1-3)[Fuc(a1-2)[GalNAc(a1-3)]Gal(b1-4)GlcNAc(b1-2)Man(a1-6)]Man(b1-4)GlcNAc(b1-4)GlcNAc
# Outline: as §1
# [35] = target: Fuc(a1-2)[GalNAc(a1-3)]Gal(b1-4)GlcNAc(b1-2)Man(a1-3)[Fuc(a1-2)[GalNAc(a1-3)]Gal(b1-4)GlcNAc(b1-2)Man(a1-6)]Man(b1-4)GlcNAc(b1-4)[Fuc(a1-6)]GlcNAc
# Outline: as §1
# [36] = target: Fuc(a1-2)[GalNAc(a1-3)]Gal(b1-4)GlcNAc(b1-3)Gal(b1-4)GlcNAc
# Outline: as §1
# [37] = target: Fuc(a1-2)[GalNAc(a1-3)]Gal(b1-4)GlcNAc(b1-3)Gal(b1-4)GlcNAc(b1-3)Gal(b1-4)GlcNAc
# Outline: as §1
# [38] = target: Fuc(a1-2)[GalNAc(a1-3)]Gal(b1-4)GlcNAc(b1-3)GalNAc
# Outline: as §1
# [39] = target: Fuc(a1-2)[GalNAc(a1-3)]Gal(b1-4)GlcNAc(b1-3)[Fuc(a1-2)[GalNAc(a1-3)]Gal(b1-4)GlcNAc(b1-6)]GalNAc
# Outline: as §1
# [40] = target: Fuc(a1-2)[GalNAc(a1-3)]Gal(b1-4)GlcNAc(b1-6)GalNAc
# Outline: as §1
# [41] = target: Fuc(a1-2)[GalNAc(a1-3)]Gal(b1-4)[Fuc(a1-3)]GlcNAc
# Outline: as §1
# [42] = target: Fuc(a1-2)[GalNAc(a1-3)]Gal(b1-4)[Fuc(a1-3)]GlcNAc(b1-3)GalNAc
# Outline: as §1
# [43] = target: Fuc(a1-2)[GalNAc(a1-4)]Gal(b1-4)GlcNAc
# Outline: as §1
binder,measurement,setting,value
B1,glycan array binding signal (z-score),[1],-0.192
same,glycan array binding signal (z-score),[2],-0.187
same,glycan array binding signal (z-score),Fuc(a1-2)Gal6S(b1-4)Glc,-0.193
same,glycan array binding signal (z-score),[3],-0.189
same,glycan array binding signal (z-score),Fuc(a1-2)[Gal(a1-3)]Gal,-0.194
same,glycan array binding signal (z-score),[4],-0.193
same,glycan array binding signal (z-score),[5],-0.195
same,glycan array binding signal (z-score),[6],-0.194
same,glycan array binding signal (z-score),[7],0.003
same,glycan array binding signal (z-score),[8],0.122
same,glycan array binding signal (z-score),[9],-0.194
same,glycan array binding signal (z-score),[10],-0.195
same,glycan array binding signal (z-score),[11],-0.195
same,glycan array binding signal (z-score),[12],-0.192
same,glycan array binding signal (z-score),[13],-0.195
same,glycan array binding signal (z-score),[14],-0.075
same,glycan array binding signal (z-score),[15],0.098
same,glycan array binding signal (z-score),[16],-0.195
same,glycan array binding signal (z-score),[17],-0.188
same,glycan array binding signal (z-score),[18],-0.194
same,glycan array binding signal (z-score),[19],-0.192
same,glycan array binding signal (z-score),[20],-0.194
same,glycan array binding signal (z-score),[21],-0.195
same,glycan array binding signal (z-score),[22],-0.206
same,glycan array binding signal (z-score),[23],-0.194
same,glycan array binding signal (z-score),[24],-0.205
same,glycan array binding signal (z-score),[25],-0.194
same,glycan array binding signal (z-score),[26],-0.193
same,glycan array binding signal (z-score),[27],-0.149
same,glycan array binding signal (z-score),[28],0.244
same,glycan array binding signal (z-score),[29],-0.188
same,glycan array binding signal (z-score),[30],-0.195
same,glycan array binding signal (z-score),[31],-0.193
same,glycan array binding signal (z-score),[32],-0.194
same,glycan array binding signal (z-score),[33],-0.195
same,glycan array binding signal (z-score),[34],-0.058
same,glycan array binding signal (z-score),[35],0.117
same,glycan array binding signal (z-score),[36],-0.193
same,glycan array binding signal (z-score),[37],-0.189
same,glycan array binding signal (z-score),[38],-0.192
same,glycan array binding signal (z-score),[39],-0.193
same,glycan array binding signal (z-score),[40],-0.193
same,glycan array binding signal (z-score),[41],-0.193
same,glycan array binding signal (z-score),[42],-0.19
same,glycan array binding signal (z-score),[43],-0.195
